# Source: the supplement of paper PMC7238544
# Where a name gives a salt, the structure may show the parent alone. ± gives the standard deviation of the averaged measurements. Some of the results follow.
# What was measured:
# Settings in all cases: priming compound concentration 100 µM
# [1] = tested on: hAMSC donor 1; assay: Hoechst total cell count ratio vs vehicle control; higher = more cells (less toxicity)
# [2] = tested on: hAMSC donor 2; assay: as above
# [3] = tested on: hAMSC donor 1; assay: transgenic luciferase activity (RLU/mg protein) fold change vs vehicle control (ratio); higher = more transgene expression
# [4] = tested on: hAMSC donor 2; assay: as above
# [5] = tested on: hAMSC donor 1; assay: transfection efficiency (EGFP+ cells / Hoechst count) fold change vs vehicle control (ratio); hAMSC are human adipose-derived mesenchymal stem cells given an EGFP-luciferase plasmid by lipofection; higher = enhanced transfection
# [6] = tested on: hAMSC donor 2; assay: as above
# 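For Hoechst total cell count ratio vs vehicle control in this document: compound added 30 min before Lipofectamine 3000 lipoplex delivery, triplicate-well means expressed against DMSO vehicle control wells of the same 96-well plate.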
# 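For transfection efficiency (EGFP+ cells / Hoechst count) fold change vs vehicle control in this document: compounds added 30 min before Lipofectamine 3000 lipoplex transfection, triplicate means relative to DMSO vehicle wells on the same plate, luciferase RLU normalized to BCA total protein.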
# 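For transgenic luciferase activity (RLU/mg protein) fold change vs vehicle control in this document: compounds in DMSO added 30 min before Lipofectamine 3000 transfection of pEGFP-Luc in 96-well plates, values are means of triplicate wells over DMSO vehicle wells on the same plate.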
smiles,measurement,setting,value
CCCCC(=O)O[C@H]1CC[C@H]2[C@@H]3CCc4cc(O)ccc4[C@H]3CC[C@]12C [Estradiol valerate],Hoechst total cell count ratio,[1],0.488 ± 0.31
same,Hoechst total cell count ratio,[2],0.0597 ± 0.011
same,transgenic luciferase activity,[3],0.00301 ± 0.0021
same,transgenic luciferase activity,[4],0.000577 ± 0.00061
same,transfection efficiency,[5],0.123 ± 0.099
same,transfection efficiency,[6],0.22 ± 0.2
CCCCc1nc(Cl)c(CO)n1Cc1ccc(-c2ccccc2-c2nnn[nH]2)cc1 [Losartan potassium],Hoechst total cell count ratio,[1],1.03 ± 0.057
same,Hoechst total cell count ratio,[2],1.16 ± 0.13
same,transgenic luciferase activity,[3],3.01 ± 1.1
same,transgenic luciferase activity,[4],0.923 ± 0.12
same,transfection efficiency,[5],1.54 ± 0.24
same,transfection efficiency,[6],1.11 ± 0.14
C=C1/C(=C\C=C2/CCC[C@]3(C)[C@@H]([C@H](C)/C=C/[C@@H](O)C4CC4)CC[C@@H]23)C[C@@H](O)C[C@@H]1O [Calcipotriol],Hoechst total cell count ratio,[1],1.51 ± 0.12
same,Hoechst total cell count ratio,[2],1.14 ± 0.07
same,transgenic luciferase activity,[3],1.1 ± 0.55
same,transgenic luciferase activity,[4],1.54 ± 0.7
same,transfection efficiency,[5],0.412 ± 0.14
same,transfection efficiency,[6],0.798 ± 0.5
O=C(c1ccccc1)c1ccc2n1CCC2C(=O)O (stereo not drawn) [Ketorolac tromethamine],Hoechst total cell count ratio,[1],1.12 ± 0.13
same,Hoechst total cell count ratio,[2],1.452 ± 0.01
same,transgenic luciferase activity,[3],0.602 ± 0.14
same,transgenic luciferase activity,[4],0.718 ± 0.06
same,transfection efficiency,[5],0.866 ± 0.18
same,transfection efficiency,[6],0.777 ± 0.09
CC(C)(O)c1ccccc1CC[C@@H](SCC1(CC(=O)O)CC1)c1cccc(/C=C/c2ccc3ccc(Cl)cc3n2)c1 [Montelukast sodium],Hoechst total cell count ratio,[1],1.23 ± 0.079
same,Hoechst total cell count ratio,[2],1.06 ± 0.22
same,transgenic luciferase activity,[3],1.03 ± 0.24
same,transgenic luciferase activity,[4],1.89 ± 0.089
same,transfection efficiency,[5],0.282 ± 0.023
same,transfection efficiency,[6],0.754 ± 0.038
CC(=O)[C@H]1CC[C@H]2[C@@H]3CCC4=CC(=O)CC[C@]4(C)[C@H]3CC[C@]12C [Progesterone],Hoechst total cell count ratio,[1],1.11 ± 0.11
same,Hoechst total cell count ratio,[2],1.07 ± 0.12
same,transgenic luciferase activity,[3],0.292 ± 0.037
same,transgenic luciferase activity,[4],0.424 ± 0.17
same,transfection efficiency,[5],0.78 ± 0.12
same,transfection efficiency,[6],0.937 ± 0.19
CC1(C)S[C@@H]2[C@H](NC(=O)Cc3ccccc3)C(=O)N2[C@H]1C(=O)O [Penicillin G potassium],Hoechst total cell count ratio,[1],1.45 ± 0.24
same,Hoechst total cell count ratio,[2],1.17 ± 0.28
same,transgenic luciferase activity,[3],1.54 ± 0.15
same,transgenic luciferase activity,[4],0.54 ± 0.32
same,transfection efficiency,[5],0.683 ± 0.32
same,transfection efficiency,[6],1.3 ± 0.2
NC(N)=Nc1nc(CSCC/C(N)=N/S(N)(=O)=O)cs1 [Famotidine],Hoechst total cell count ratio,[1],0.905 ± 0.095
same,Hoechst total cell count ratio,[2],1.09 ± 0.051
same,transgenic luciferase activity,[3],0.625 ± 0.24
same,transgenic luciferase activity,[4],1.04 ± 0.16
same,transfection efficiency,[5],1.77 ± 0.87
same,transfection efficiency,[6],1.84 ± 0.17
CCC(C)n1ncn(-c2ccc(N3CCN(c4ccc(OCC5COC(Cn6cncn6)(c6ccc(Cl)cc6Cl)O5)cc4)CC3)cc2)c1=O (stereo not drawn) [Itraconazole],Hoechst total cell count ratio,[1],0.66 ± 0.099
same,Hoechst total cell count ratio,[2],0.603 ± 0.05
same,transgenic luciferase activity,[3],0.106 ± 0.086
same,transgenic luciferase activity,[4],0.967 ± 0.63
same,transfection efficiency,[5],1.88 ± 0.49
same,transfection efficiency,[6],1.51 ± 0.19
COc1cc([C@@H]2c3cc4c(cc3[C@@H](O[C@@H]3O[C@@H]5CO[C@@H](C)O[C@H]5[C@H](O)[C@H]3O)[C@H]3COC(=O)[C@H]23)OCO4)cc(OC)c1O [Etoposide],Hoechst total cell count ratio,[1],0.639 ± 0.23
same,Hoechst total cell count ratio,[2],0.42 ± 0.13
same,transgenic luciferase activity,[3],0.373 ± 0.26
same,transgenic luciferase activity,[4],0.693 ± 0.24
same,transfection efficiency,[5],1.21 ± 0.38
same,transfection efficiency,[6],0.758 ± 0.36
COC(=O)C1=C(C)NC(C)=C(C(=O)OC)C1c1ccccc1[N+](=O)[O-] [Nifedipine],Hoechst total cell count ratio,[1],1.69 ± 0.029
same,Hoechst total cell count ratio,[2],0.843 ± 0.27
same,transgenic luciferase activity,[3],0.967 ± 0.26
same,transgenic luciferase activity,[4],1.4 ± 0.17
same,transfection efficiency,[5],0.552 ± 0.13
same,transfection efficiency,[6],0.773 ± 0.12
CNS(=O)(=O)Cc1ccc2[nH]cc(CCN(C)C)c2c1 [Sumatriptan succinate],Hoechst total cell count ratio,[1],1.36 ± 0.2
same,Hoechst total cell count ratio,[2],1.22 ± 0.14
same,transgenic luciferase activity,[3],1.65 ± 0.24
same,transgenic luciferase activity,[4],1.07 ± 0.032
same,transfection efficiency,[5],1.73 ± 0.56
same,transfection efficiency,[6],0.908 ± 0.13
C[C@H](N[C@@H](CCc1ccccc1)C(=O)O)C(=O)N1CCC[C@H]1C(=O)O [Enalaprilat],Hoechst total cell count ratio,[1],1.8 ± 0.075
same,Hoechst total cell count ratio,[2],1.19 ± 0.067
same,transgenic luciferase activity,[3],1.1 ± 0.52
same,transgenic luciferase activity,[4],1.01 ± 0.18
same,transfection efficiency,[5],0.933 ± 0.085
same,transfection efficiency,[6],0.62 ± 0.076
C[C@H]1O[C@H](O[C@H]2[C@H](O)[C@@H](O)[C@@H](O[C@H]3[C@H](O)[C@@H](O)C(O)O[C@@H]3CO)O[C@@H]2CO)[C@H](O)[C@@H](O)[C@@H]1N[C@H]1C=C(CO)[C@@H](O)[C@H](O)[C@H]1O (stereo partly drawn) [Acarbose],Hoechst total cell count ratio,[1],1.09 ± 0.026
same,Hoechst total cell count ratio,[2],1.29 ± 0.22
same,transgenic luciferase activity,[3],0.794 ± 0.18
same,transgenic luciferase activity,[4],0.763 ± 0.24
same,transfection efficiency,[5],1.15 ± 0.29
same,transfection efficiency,[6],0.898 ± 0.14
CC(CCCCC(=O)Nc1ccc(C(F)(F)F)cc1)NCCc1cnc[nH]1 (stereo not drawn) [HTMT dimaleate],Hoechst total cell count ratio,[1],1.68 ± 0.15
same,Hoechst total cell count ratio,[2],1.16 ± 0.12
same,transgenic luciferase activity,[3],0.27 ± 0.23
same,transgenic luciferase activity,[4],0.441 ± 0.22
same,transfection efficiency,[5],0.711 ± 0.045
same,transfection efficiency,[6],0.409 ± 0.049
COc1cc2nc(N(C)CCCNC(=O)C3CCCO3)nc(N)c2cc1OC (stereo not drawn) [Alfuzosin],Hoechst total cell count ratio,[1],1.46 ± 0.12
same,Hoechst total cell count ratio,[2],1.53 ± 0.12
same,transgenic luciferase activity,[3],0.682 ± 0.38
same,transgenic luciferase activity,[4],0.776 ± 0.16
same,transfection efficiency,[5],1.22 ± 0.29
same,transfection efficiency,[6],0.717 ± 0.083
Clc1ccc(COC(Cn2ccnc2)c2ccc(Cl)cc2Cl)c(Cl)c1 (stereo not drawn) [Miconazole nitrate],Hoechst total cell count ratio,[1],0.237 ± 0.14
same,Hoechst total cell count ratio,[2],0.147 ± 0.042
same,transgenic luciferase activity,[3],0.0214 ± 0.032
same,transgenic luciferase activity,[4],0.000615 ± 0.00064
same,transfection efficiency,[5],2.14 ± 1.2
same,transfection efficiency,[6],0.0992 ± 0.17
CCCCc1oc2ccccc2c1C(=O)c1cc(I)c(OCCN(CC)CC)c(I)c1 [Amiodarone hydrochloride],Hoechst total cell count ratio,[1],0.922 ± 0.067
same,Hoechst total cell count ratio,[2],1.15 ± 0.25
same,transgenic luciferase activity,[3],1.75 ± 1.4
same,transgenic luciferase activity,[4],0.404 ± 0.084
same,transfection efficiency,[5],0.484 ± 0.082
same,transfection efficiency,[6],0.344 ± 0.1
CC(CN1c2ccccc2Sc2ccccc21)N(C)C (stereo not drawn) [Promethazine hydrochloride],Hoechst total cell count ratio,[1],0.865 ± 0.062
same,Hoechst total cell count ratio,[2],0.301 ± 0.16
same,transgenic luciferase activity,[3],0.212 ± 0.2
same,transgenic luciferase activity,[4],0.301 ± 0.08
same,transfection efficiency,[5],0.192 ± 0.084
same,transfection efficiency,[6],0.593 ± 0.21
CN(Cc1cnc2nc(N)nc(N)c2n1)c1ccc(C(=O)N[C@@H](CCC(=O)O)C(=O)O)cc1 [Methotrexate trihydrate],Hoechst total cell count ratio,[1],1.16 ± 0.25
same,Hoechst total cell count ratio,[2],1.11 ± 0.18
same,transgenic luciferase activity,[3],0.548 ± 0.24
same,transgenic luciferase activity,[4],0.193 ± 0.079
same,transfection efficiency,[5],1.21 ± 0.36
same,transfection efficiency,[6],1.04 ± 0.23
CN(CCOc1ccc(NS(C)(=O)=O)cc1)CCc1ccc(NS(C)(=O)=O)cc1 [Dofetilide],Hoechst total cell count ratio,[1],1.33 ± 0.062
same,Hoechst total cell count ratio,[2],1.36 ± 0.55
same,transgenic luciferase activity,[3],0.957 ± 0.22
same,transgenic luciferase activity,[4],0.69 ± 0.17
same,transfection efficiency,[5],0.701 ± 0.084
same,transfection efficiency,[6],0.934 ± 0.27
CCCCC1=NC2(CCCC2)C(=O)N1Cc1ccc(-c2ccccc2-c2nnn[nH]2)cc1 [Irbesartan],Hoechst total cell count ratio,[1],1.57 ± 0.23
same,Hoechst total cell count ratio,[2],1.85 ± 0.43
same,transgenic luciferase activity,[3],16.1 ± 3.5
same,transgenic luciferase activity,[4],1.13 ± 0.21
same,transfection efficiency,[5],1.19 ± 0.13
same,transfection efficiency,[6],1.35 ± 0.055
CN(CCO)CC(O)Cn1cnc2c1c(=O)n(C)c(=O)n2C (stereo not drawn) [Xanthinol nicotinate],Hoechst total cell count ratio,[1],1.41 ± 0.11
same,Hoechst total cell count ratio,[2],1.27 ± 0.22
same,transgenic luciferase activity,[3],0.371 ± 0.19
same,transgenic luciferase activity,[4],1.05 ± 0.26
same,transfection efficiency,[5],0.693 ± 0.32
same,transfection efficiency,[6],0.905 ± 0.13
